# ChEMBL document CHEMBL4888484, “Replenishing the malaria drug discovery pipeline: Screening and hit evaluation of the MMV Hit Generation Library 1 (HGL1) against asexual blood stage Plasmodium falciparum ,using a nano luciferase reporter read-out” (2022)
# The whole screen tested about 150,000 compounds, of which about 540 (0.36%) showed an effect of 50% or more. This is one part of the list.
# Test system: Plasmodium falciparum
# Experiment: Primary screen in NF54 nanoGlo assay, in single point, at 2uM, 72h; a lower Z score goes with more inhibition
# Format: functional, Erythrocyte
# Details: timepoint 72 hour
Structure (SMILES),% Inhibition [%],Z score
Cc1cc(CNC(=O)c2ccccc2N2CCCC2)[nH]n1,-9,1.13
Cn1c(=O)n([C@H]2CCN(C(=O)c3ccsc3)C2)c2ncncc21,-16,1.64
CN(C)C(=O)N1CCC(c2nnc3n2CCN(C(=O)c2ccc4ncccc4c2)C3)CC1,-7,1.12
Cc1ccc(N2CC[C@@H](C(=O)N3CCN(Cc4ccccc4)CC3)C2=O)c(Cl)c1,-14,1.26
NC(=O)[C@H](Cc1ccccc1)NCC(=O)NC1CCCCCCC1,-14,1.97
COCC1(C(=O)N[C@@H](Cc2ccccc2)c2ccccc2)CCC1,6,-1.12
Cc1cccc(C(=O)NC[C@H](C)OC(=O)C2CCN(C(=O)c3cccc(C)n3)CC2)n1,-5,0.5
CN(CCO)C(=O)Nc1ccc(Cl)c(Br)c1,-10,1.35
COc1ncccc1C(=O)Nc1ccc(N2CCNC(=O)C2)nc1,-9,1.33
Cc1ccc(-c2nnc(C(C)N3CC4OCCN(C)C4C3)o2)cc1 (stereo unspecified),-6,0.46
CN(Cc1ccc(Br)o1)C(=O)CC(C)(C)C,-5,0.69
Cc1nnc(CNC(=O)c2cccnc2O[C@H]2CCOC2)o1,-1,0.27
Cc1cnc(C2CC2)n1CCNC(=O)c1cn(C)cn1,13,-1.67
CCn1c([C@H]2CCN(C(=O)c3ccc(OC)nc3)C2)nc2cccnc21,-7,0.8
COc1ccc(S(=O)(=O)N2CCC[C@H]2c2cc(C(C)C)no2)cc1,-5,0.74
CC(C)[C@H](NC(=O)OC(C)(C)C)c1nnc(S(=O)(=O)Cc2c(Cl)cccc2Cl)o1,0,0.04
COc1ccc(C(=O)NC2CCN(c3nc4c(s3)c(C)nn4-c3ccc(OC)cc3)CC2)cc1,-6,0.81
Cc1ncc(CO)c(CN2C[C@H]3CC[C@@H](C2)N(CC2CCC2)C3)c1O,-1,0.07
Cc1nccc(N(CCC(F)(F)F)C[C@H](O)CO)n1,-13,1.45
COc1ccc2[nH]cc(C(=O)c3sc(Nc4ccccc4C)nc3N)c2c1,-9,1.39
CC1(C)NC(=O)CC[C@@H]1NCc1ccc(C2CC2)cc1F,-1,0.17

Structure (SMILES),% Inhibition [%],Z score
CCCn1ncnc1Cn1cnc(C)c(C)c1=O,-6,0.65
CCN(CC)S(=O)(=O)NC(=O)Cc1c(F)cccc1F,-10,1.96
CCNc1nc(C)c(C(=O)N2CCO[C@H](C3CC3)C2)s1,-17,3.2
CCc1ccc(NC(=O)N2C[C@H](C)C(=O)[C@@H](C)C2)cc1F,-14,2.27
Cc1ccccc1NS(=O)(=O)c1cc(C(=O)N2CCCCCC2)cs1,1,-0.16
C[C@H]1C(=O)NCCCN1Cc1ccn(-c2ccccc2)n1,-3,0.48
CCCN(C(=O)c1cnn(C)c1N)C1CC(OCC)C12CCCC2 (stereo unspecified),-8,0.84
Cc1ccc(-c2cc(C(=O)N3CCC(C)CC3)n3nc(C(C)(C)C)cc3n2)cc1,-16,2.12
CCCN(Cc1c(C)nn(-c2cccc(F)c2)c1N1CCN(C)CC1)S(=O)(=O)c1ccc(Br)cc1,-16,1.51
Cn1ccnc1C(O)C1CCCN(C(=O)OC(C)(C)C)C1 (stereo unspecified),-4,0.63
CCn1ncc(C(=O)N[C@@H](C)c2cccc(-n3cccn3)c2)n1,7,-1.01
CC1(C)C[C@@H]1c1nnc(COc2ccc(C#N)cc2)o1,-15,2.38
Cn1nc(C(F)(F)F)cc1C(=O)N1CCC[C@](C)(c2ccccc2)C1,-1,0.16
COCc1csc(C(=O)Nc2cncc(C(C)C)c2)c1,-7,1.12
O=c1c2ccccc2ncn1C[C@H](O)COc1ccc2ccccc2c1,-2,0.4
COC(=O)c1[nH]c(C)c(C(=O)N2CCN(c3cccc(C)c3)CC2)c1C,-1,0.12
O=C(c1cnn2c1OCCC2)N1Cc2ncccc2N2CCC[C@H]2C1,-10,1.75
Cc1ccccc1Nc1nc(N)nc(CN(C)CC(=O)Nc2cccc(F)c2)n1,-14,1.85
COc1cccc(C(=O)N2CCc3nc(N(C)Cc4ccccc4)nc(Oc4cccc(F)c4)c3C2)c1,-14,1.87
CC(C)c1nn(C)cc1CN(C)[C@@H](C)C#N,-8,1.11
Cc1ccc(CS(=O)(=O)[C@@H](C)c2nnnn2C)cc1C,6,-0.98

Structure (SMILES),% Inhibition [%],Z score
COC(=O)N1C[C@@H]2[C@@H](CN(C)Cc3nc(C(C)C)no3)[C@@H]2C1,-9,1.72
CCCN(CC(=O)N1CCc2sccc2[C@@H]1COc1ccc(C(C)C)cc1)C(=O)Nc1ccc(C)cc1,-3,0.41
Cc1ccccc1OC1(C(=O)O)CCN(C(=O)[C@@H]2CC=CCC2)CC1,-10,1.04
CC(=O)N[C@H]1CCN(C(=O)c2ccc(-c3ccc(C)nc3C)cc2)C1,4,-0.68
O=C(N[C@H]1C[C@H](c2cc(=O)[nH]cn2)C1)c1nccnc1C(=O)N1CCCCC1,-1,0.15
Cc1ccccc1N1C(=O)C2ON(c3ccccc3)C(c3ccncc3)C2C1=O (stereo unspecified),-5,0.48
C[C@@]12CN(C(=O)CN3CCCS3(=O)=O)CC1[C@H]1CC[C@@H]2C1 (stereo partly specified),-10,1.02
COc1ccc(-c2noc([C@H](C)NC(=O)c3cccnc3)n2)cc1OC,1,-0.2
Cc1cccc(C(=O)Nc2c(C#N)c(-c3ccccc3)c(-c3ccccc3)n2Cc2ccccc2)c1,33,-0.45
COc1cccc(-c2cn[nH]c2C2CCN(Cc3cccs3)CC2)c1,-4,0.4
Oc1nnc(COc2ccc(Br)cc2)o1,12,-1.73
Cc1ccc(S(=O)(=O)N2C(=O)CC[C@H]2C(=O)N(C)C2CCCCC2)cc1C,-15,2.04
C#CCNC(=O)c1cc(Br)cnc1N(C)C,-3,0.36
Cc1cc(C)n(S(=O)(=O)c2cccc3nonc23)n1,-2,0.33
CCc1ccc([C@H](C)NCC(C)(C)C(N)=O)s1,9,-1.35
CC(C)c1ccc([C@H](C)NCC2(O)CCC(C(=O)O)CC2)cc1 (stereo partly specified),-1,0.16
Cc1nn(C)c(C)c1S(=O)(=O)N1CCC[C@H](Cc2nc(-c3ccccc3F)no2)C1,12,-1.56
NC1(Cc2cc(-c3ccccc3)on2)COC1,-5,0.7
Cn1nccc1-c1nc(CCc2ccccc2)no1,4,-0.38
COc1cccc(-c2cc3nc(C(=O)O)cc(C4CC4)n3n2)c1,-4,0.58
Cc1nc(C)n(CCCNC(=O)N2CCC[C@H](c3nc4c(C)cccc4[nH]3)C2)n1,18,-2.29

Structure (SMILES),% Inhibition [%],Z score
COc1ccc(-n2ncnc2[C@H](C)N2CCCCC2)cc1,-16,1.72
CC(NC(=O)C(C)n1ccnc1)c1cnn(C)c1 (stereo unspecified),19,-2.38
Cc1cc(C(=O)Nc2nc3c(s2)CN(C(=O)c2cc(C)oc2C)CC3)no1,-16,2.3
OCCN1CCC[C@H](Nc2ncnc3c(F)cccc23)C1,-7,0.98
CCOc1ccc(CC(=O)N2C3C=CCC2CC3)cc1 (stereo unspecified),-2,0.41
C[C@@H](C(=O)OCc1cc2c(Cl)cccc2[nH]1)N(C)CC(F)(F)F,-13,1.57
c1nc2c(c(N3CCOC4(CCCC4)C3)n1)CCNCC2,3,-0.59
COC(=O)c1ccc2nn(C(C)=O)cc2c1,-3,0.38
C=CCOc1nc2ccc(C)cc2cc1CNCCO,3,-0.39
CCc1nnc(C)cc1C(=O)N1CCc2[nH]c3ccc(F)cc3c2C1,17,-2.13
O=C(c1ncccn1)N1CC[C@H](Oc2ccncc2Cl)C1,-4,0.7
CO[C@H]1CN(C)C[C@@H]1Nc1ccc2ccccc2n1,-5,1.08
CCc1ccccc1NC(=O)CN1CCN(C(=O)c2cc(C)sc2C)CC1,3,-0.38
C[C@@H](CN)N(C)c1ccnc2cc(Br)cnc12,99,-17.88
C[C@@H](CC(=O)Nc1nc(C#N)c(C#N)[nH]1)c1cccc(C(F)(F)F)c1,14,-2.23
COc1cccc(-c2oncc2CN2CCC(C)CC2)c1,4,-0.7
O=C1NC(=O)[C@@H]2CN(C(=O)C3(Cc4ccc(Cl)cc4)CC4CCC3C4)C[C@H]12 (stereo partly specified),-9,1.66
COc1ccc(S(=O)(=O)N2C[C@H]3CN(S(=O)(=O)c4ccccc4)C[C@@H](C2)O3)cc1,-5,0.91
CC(C)(C)NC(=O)N1CCCN(S(=O)(=O)c2ccccc2)CCC(=O)NCC1,2,-0.23
COc1ccc(CCNc2nc(-c3ccc4[nH]c(=O)[nH]c4c3)cs2)cc1OC,-10,1.24
